From ChEMBL document CHEMBL4888484, “Replenishing the malaria drug discovery pipeline: Screening and hit evaluation of the MMV Hit Generation Library 1 (HGL1) against asexual blood stage Plasmodium falciparum ,using a nano luciferase reporter read-out” (2022)
The campaign covered roughly 150,000 compounds. About 540 (0.36%) showed an effect of 50% or more. Some of the results follow.

What follows are compounds tested on Plasmodium falciparum (assay: Primary screen in NF54 nanoGlo assay, in single point, at 2uM, 72h; a lower Z score goes with more inhibition). Conditions: timepoint 72 hour.
Assay type: functional, Erythrocyte
`O=C(NCCCN1CCOCC1)c1cnoc1-c1ccccc1` was tested, and the “% Inhibition” value was -6% and the Z score was 1.1. In the case of `CC(C)C[C@H]1NC(=O)c2cc(F)ccc2OCCn2cc(nn2)CCN(C(=O)CCC2CCC2)CCNC1=O`, the “% Inhibition” value was -1% and the Z score was 0.15. `COc1ccc(CNC(=O)N2CCCOCCNC(=O)[C@@H]3CCCC[C@@H]32)cc1` was tested, and the “% Inhibition” value was -8% and the Z score was 1.43. `CCn1cc(CNC(=O)c2cc(C)nc3onc(-c4ccc(OC)cc4)c23)cn1` was tested, and the “% Inhibition” value was -1% and the Z score was 0.15. `COCC(=O)N1CCCC2(CCCCC2)CC1` was tested, and the “% Inhibition” value was -4% and the Z score was 0.56. In the case of `Cc1ccc(Cn2c(=O)c(C(=O)NCc3ccccn3)nn(-c3ccc(C)c(F)c3)c2=O)cc1`, the “% Inhibition” value was -17% and the Z score was 2.8. With `O=C(C1CCCCC1)N1CC[C@H](c2nnc(-c3ccccc3)o2)C1` the “% Inhibition” value was 12% and the Z score was -1.4. In the case of `CON(C(=O)c1nc(C)oc1C)[C@@H](C)c1ccccc1C`, the “% Inhibition” value was 6% and the Z score was -0.67. `CCc1ncnc(NCC2CCCC2NS(C)(=O)=O)c1F` (centres undefined) was tested, and the “% Inhibition” value was -9% and the Z score was 0.88. For `O=C(Nc1cccc(N2C(=O)c3c(Cl)c(Cl)c(Cl)c(Cl)c3C2=O)c1)c1cccs1`, the “% Inhibition” value was 9% and the Z score was -1.24. For `O=C(CCc1ccc(Cl)c(F)c1)N1CCC(N2C(=O)CNC2=O)CC1`, the “% Inhibition” value was -1% and the Z score was 0.11. With `c1ccc(CC(c2cc(-c3ccccc3)nc(-c3ccccc3)c2)c2cc(-c3ccccc3)nc(-c3ccccc3)c2)cc1` the “% Inhibition” value was 6% and the Z score was -1.07. In the case of `Cc1cccc(CN(Cc2nc(C(=O)NCCN3CCOCC3)co2)[C@@H](C)C(C)C)c1`, the “% Inhibition” value was 2% and the Z score was -0.15. In the case of `Cc1oc2c(c1C(=O)N(C)CCc1ccncc1)C(=O)CCC2`, the “% Inhibition” value was -7% and the Z score was 0.96. In the case of `Cc1cccc(NC(=O)N2CCC(c3cc(N)on3)CC2)c1`, the “% Inhibition” value was 1% and the Z score was -0.16. In the case of `CN(CCc1cccs1)C(=O)NCC1CCC2(CC1)OCCO2`, the “% Inhibition” value was 0% and the Z score was -0.04. For `Cc1cnc(C)c(N2CCC[C@H](c3ncc(C)s3)C2)n1`, the “% Inhibition” value was -11% and the Z score was 1.45. For `CCCc1cnc(C)nc1NC(CO)(CO)CO`, the “% Inhibition” value was -1% and the Z score was 0.13. `CNS(=O)(=O)CC(=O)NCC1(Nc2ccccc2C)CCCC1` was tested, and the “% Inhibition” value was -5% and the Z score was 0.87. `CC(C)(C)OC(=O)NCC1CCCCC1OC(=O)C1CCOCC1` (centres undefined) was tested, and the “% Inhibition” value was -1% and the Z score was 0.16. In the case of `CC(C)c1nnc(NC(=O)[C@@H]2CN(Cc3ccccc3)CCO2)s1`, the “% Inhibition” value was 0% and the Z score was 0. For `Cc1c([C@@H]2CC(=O)Nc3c2nc2n3CCCC2)c(=O)n(-c2ccccc2)n1C`, the “% Inhibition” value was -6% and the Z score was 0.96. `CCOc1ccc(CCn2c3c(c(=O)[nH]c2=O)C(C(F)(F)F)(C(F)(F)F)N=C(c2ccccc2)N3)cc1OCC` was tested, and the “% Inhibition” value was -12% and the Z score was 1.56. For `COc1ccccc1-c1nnc(-c2cccc(S(=O)(=O)N3CCCC3)c2)o1`, the “% Inhibition” value was 4% and the Z score was -0.61. For `O=C(NCc1nccs1)c1ccc(Cl)o1`, the “% Inhibition” value was 28% and the Z score was -3.83. `Cc1cc2nc(C)c(=O)n(Cc3ccc(C(=O)NCc4ccco4)cc3)c2cc1C` was tested, and the “% Inhibition” value was 35% and the Z score was -0.73. In the case of `FC(F)(F)c1nnc2ccc(N3CCNc4ccccc4C3)nn12`, the “% Inhibition” value was 1% and the Z score was -0.15. For `CN1CCN(S(=O)(=O)c2ccc3c(c2)CCCC3)CC1`, the “% Inhibition” value was -13% and the Z score was 1.39. With `O=C(Cc1cc(-c2ccccc2)on1)Nc1cccc(C(=O)O)c1` the “% Inhibition” value was -11% and the Z score was 2.06. `CCC(=O)Nc1ccc2c(c1)CN(C(=O)c1ccccc1OC)[C@H](C(=O)N1CCCC1)C2` was tested, and the “% Inhibition” value was -5% and the Z score was 0.83. `Cc1ccnc(-c2noc([C@H](C(=O)OC(C)(C)C)C3CCCC3)n2)n1` was tested, and the “% Inhibition” value was -10% and the Z score was 1.42. For `CCC(NC(=O)c1cc2n(n1)CCC2)C(O)c1c(F)cccc1F` (centres undefined), the “% Inhibition” value was -5% and the Z score was 0.88. `CCc1noc(-c2nc(-c3ccccc3C)no2)n1` was tested, and the “% Inhibition” value was 3% and the Z score was -0.47. `CCOc1ccc(NC(=O)CCc2c(C)nn(-c3nc(C)c(C)c(=O)[nH]3)c2C)cc1` was tested, and the “% Inhibition” value was -11% and the Z score was 1.47. `Cc1n[nH]c(C)c1-c1ccc(C(=O)N2CCOCC2)o1` was tested, and the “% Inhibition” value was -19% and the Z score was 2.5. In the case of `Cc1ccc(S(=O)(=O)N(c2cccc(F)c2)C2CCN(C)CC2)c(F)c1F`, the “% Inhibition” value was 1% and the Z score was -0.14. For `O=C(C1CCN(c2ncnc3[nH]cnc23)CC1)N1CCc2nc[nH]c2C1`, the “% Inhibition” value was -3% and the Z score was 0.37. With `COCCN1C[C@@H](Cc2ccc(S(C)(=O)=O)cc2)CC1=O` the “% Inhibition” value was 13% and the Z score was -1.66. In the case of `COc1ccc2c(c1)N1CCN(Cc3ccc(Cl)cc3)CC1C(C(=O)NCc1ccccc1F)C2` (centres undefined), the “% Inhibition” value was 1% and the Z score was -0.18. With `CS(=O)(=O)N1CCN(c2ncnc3cc(Cl)ccc23)CC1` the “% Inhibition” value was 7% and the Z score was -0.78. With `CC1CC(C)CN(C(C)CNC(=O)c2cc(-c3ccccc3)nc3ccccc23)C1` (centres undefined) the “% Inhibition” value was -10% and the Z score was 1.36. For `CCN(CC(=O)NC(C)C)Cc1cccc(C(=O)OC)c1`, the “% Inhibition” value was 3% and the Z score was -0.46. For `C=CCNC(=O)Cn1c(-c2ccccc2)nn(-c2ccc(Cl)cc2)c1=O`, the “% Inhibition” value was -14% and the Z score was 1.34. With `CC(C(=O)NC(=O)NC1CC1)N1CCC2CCCCC2C1` (centres undefined) the “% Inhibition” value was -11% and the Z score was 1.42. `O=C(c1cccc2cc[nH]c12)N(CC1CC1)C1CC1` was tested, and the “% Inhibition” value was 36% and the Z score was -1.08. In the case of `O=C(Cn1cnc2c1CCCC2)N1CCN(Cc2ccccc2)CC1`, the “% Inhibition” value was -15% and the Z score was 2.05. With `Cc1cc(C)c(S(=O)(=O)N2CCC3(CC2)NCCN=C3NC2CCCC2)c(C)c1` the “% Inhibition” value was 5% and the Z score was -0.91. With `CC1CN(C(=O)c2cc(=O)[nH]c3cc(F)ccc23)CC1N(C)C` (centres undefined) the “% Inhibition” value was 11% and the Z score was -1.53. With `Cc1ccc(-n2c(N(C)C)nc(CN3CCC(n4cncn4)CC3)c2Cl)cc1` the “% Inhibition” value was -12% and the Z score was 1.41. With `CC(C)c1nc2ccc(C(=O)NCc3ccccc3Cl)cc2o1` the “% Inhibition” value was -24% and the Z score was 2.24. With `O=C(NC1CCCCC1)N(Cc1ccc(F)cc1)c1ccc(C2c3ccccc3Oc3ccccc32)cc1` the “% Inhibition” value was 9% and the Z score was -1.15. In the case of `COCCN1C[C@@H](C(=O)N2CCN(S(=O)(=O)c3ccc(C)cc3)CC2)CCC1=O`, the “% Inhibition” value was -8% and the Z score was 1.14.
